{
  "source": "the RNAGym collection of RNA variant scans (doi:10.7554/elife.90254)",
  "parents": {"B1": {"name": "OR4K15 (parent)", "chain": "GUUAACGGUCAUAGGCCAUGGAAACUAGGAGCACCAUUUCGCUGCCAGUGAAGAAAUGAACAAAGAAAAUCUGGGCCAGGCAGGCAUCAAAAGAAAUAGUCUUGCGCUCAACCAGAAAGUCUGUAAUCAUUUUAAGGGUA"}},
  "note": "Read counts are not given, so values of variants with three or more changes are uncertain.",
  "data": [
    {"variants_of": "B1", "assay": "self-cleavage, relative activity (ratio to wild type); higher = more cleavage; in vitro, sequencing; the parent is a self-cleaving ribozyme", "values": [
      {"variant": "GUUAACGGUCAUAGGCCAUGGAAACUAGGAGCACCAUUUCGCUGCCAGUGAAGAAAUGAACAAAGAAAAUCUGGGCCUGGCAGGCAUCAAAAGAAAUAGUCUUGCGCUCAACCAGAAAGUCUGUAAUCAGUUCAAGGGUA", "self-cleavage": 0.17},
      {"variant": "GUUAACGGUCAUAGGCCAUGGAAACUAGGAGCACCAUUUCGCUGCCAGUGAAGAAAUGAACAAAGAAAAUCUGGGCCAGUCGGGCAUCAAAAGAAAUAGACUUGCGCUCAACCAGAAAGUCUGUAAUCAUUUUAAGGGUA", "self-cleavage": 0.04},
      {"variant": "GUUAACGGUCAUAGGCCAUGGAAACUAGGAGCACCAUUUCGCUGCCAGUGAAGAAAUGAACAAAGAAAAUCUGGGCCUGGCAGGCAUCAAAGGAAGUAGUCUUGCGCUCAACCAGAAAGUCUGUAAUCAUUUUAAGGGUA", "self-cleavage": 0.24},
      {"variant": "GUUAACGGUCAUAGGCCAUGGAAACUAGGAGCACCAUUUCGCUGCCAGUGAAGAAAUGAACAAAGAAAAUCUGGGCCGGGCAGGCAUCAAAAGAAAUAGUCUUGCGCCCAACCAGAGAGUCUGUAAUCAUCUUAAGGGUA", "self-cleavage": 0.01},
      {"variant": "GUUAACGGUCAUAGGCCAUGGAAACUAGGAGCACCAUUUCGCUGCCAGUGAAGAAAUGAACAAAGAAAAUCUGGGCCAGACAGGCAUCAGAAGAAAUAGUCUUGCGCUCAACCAGAAAGUCAGUAAUCAUUUUAAGGGUA", "self-cleavage": 0.13},
      {"variant": "GUUAACGGUCAUAGGCCAUGGAAACUAGGAGCACCAUUUCGCUGCCAGUGAAGAAAUGAACAAAGAAAAUCUGGGCCAGGUAGGCAUCAAAAGAAAUAGUCUUGCGCUCAACCAGAAUGUCUGUAAUCAUUUUAUGGGUA", "self-cleavage": 0.14},
      {"variant": "GUUAACGGUCAUAGGCCAUGGAAACUAGGAGCACCAUUUCGCUGCCAGUGAAGAAAUGAACAAAGAAAAUCUGGGCCAGGCCGGCAUCAAAAGAAAUAGUCUUGCGCGCAACCAGAAAGUCUGCAAUCAUUUUAAGGGUA", "self-cleavage": 0},
      {"variant": "GUUAACGGUCAUAGGCCAUGGAAACUAGGAGCACCAUUUCGCUGCCAGUGAAGAAAUGAACAAAGAAAAUCUGGGCCUGGCAGGCAUCAAAAGAAGUAGUCUUGCGCUCAGCCAGAAAGUCUGUAAUCAUUUUAAGGGUA", "self-cleavage": 0.02},
      {"variant": "GUUAACGGUCAUAGGCCAUGGAAACUAGGAGCACCAUUUCGCUGCCAGUGAAGAAAUGAACAAAGAAAAUCUGGGCCUGGCAGGCUUCAAAAGAAAUAGUCUUGCGCUCAACCAGAAAGUCUGUAAUCGUUUUAAGGGUA", "self-cleavage": 0.11},
      {"variant": "GUUAACGGUCAUAGGCCAUGGAAACUAGGAGCACCAUUUCGCUGCCAGUGAAGAAAUGAACAAAGAAAAUCUGGGCCAGGAAGGCAUCAAAGGAAAUAGUCUUGCGCUCAACCAGAAAGUCUGUAACCAUUUUAAGGGUA", "self-cleavage": 0.03},
      {"variant": "GUUAACGGUCAUAGGCCAUGGAAACUAGGAGCACCAUUUCGCUGCCAGUGAAGAAAUGAACAAAGAAAAUCUGGGCCAGUCAGGCAUCAAAAGAAAUAGUCCUGCGCUCAACCAGAAAGUCUGUAACCAUUUUAAGGGUA", "self-cleavage": 0.13},
      {"variant": "GUUAACGGUCAUAGGCCAUGGAAACUAGGAGCACCAUUUCGCUGCCAGUGAAGAAAUGAACAAAGAAAAUCUGGGCCAGACAGGCAUCAAAAGAAAUAGUCUUGCGCUCAGCCAGAAAGUCUGUAAUCAUCUUAAGGGUA", "self-cleavage": 0},
      {"variant": "GUUAACGGUCAUAGGCCAUGGAAACUAGGAGCACCAUUUCGCUGCCAGUGAAGAAAUGAACAAAGAAAAUCUGGGCCAAGCAGGCGUCAAAAGAAAUAGUCUUGCGCUCAUCCAGAAAGUCUGUAGUCAUUUUAAGGGUA", "self-cleavage": 0.01},
      {"variant": "GUUAACGGUCAUAGGCCAUGGAAACUAGGAGCACCAUUUCGCUGCCAGUGAAGAAAUGAACAAAGAAAAUCUGGGCCAGACAGGCAUCAAAAGAGAUAGUCUUGCGCUCAGCCAGAAAGACUGUAAUCAUUUUAAGGGUA", "self-cleavage": 0.01},
      {"variant": "GUUAACGGUCAUAGGCCAUGGAAACUAGGAGCACCAUUUCGCUGCCAGUGAAGAAAUGAACAAAGAAAAUCUGGGCCAGGCGGGCAUCAUAAGGAAUAGUCUUGCGCUCAACCAGAAAGUCUGUAAUCAUUUUAAGGGUA", "self-cleavage": 0.71},
      {"variant": "GUUAACGGUCAUAGGCCAUGGAAACUAGGAGCACCAUUUCGCUGCCAGUGAAGAAAUGAACAAAGAAAAUCUGGGCCAGGCGGGCAUCGAAAGAAAUAGUCUUGCGCUCAACCAGAAAGUCUGUAAUCAUUUUAAGGGAA", "self-cleavage": 0.55},
      {"variant": "GUUAACGGUCAUAGGCCAUGGAAACUAGGAGCACCAUUUCGCUGCCAGUGAAGAAAUGAACAAAGAAAAUCUGGGCCUGGCAGGCAUCAAAAGAAAUAGUCUUGCGCUCAACCAGAAAGUCUGUGAUCAUUCUAAGGGUA", "self-cleavage": 0.03},
      {"variant": "GUUAACGGUCAUAGGCCAUGGAAACUAGGAGCACCAUUUCGCUGCCAGUGAAGAAAUGAACAAAGAAAAUCUGGGCCAAGCGGGCAUCAAAAGAAAUAGUCUUGCGCUCAACCAGAAAGCCUGUAAUCAUUUUAAGGGUA", "self-cleavage": 0.18},
      {"variant": "GUUAACGGUCAUAGGCCAUGGAAACUAGGAGCACCAUUUCGCUGCCAGUGAAGAAAUGAACAAAGAAAAUCUGGGCCAGGCCGGCAUCAAAAGAAAUAGUCUUGCGCUCGACCAGAAAGUCUGUAAUCACUUUAAGGGUA", "self-cleavage": 0.01},
      {"variant": "GUUAACGGUCAUAGGCCAUGGAAACUAGGAGCACCAUUUCGCUGCCAGUGAAGAAAUGAACAAAGAAAAUCUGGGCCAGGCGGGCAUCAACAGAAAUAGCCUUGCGCUCAACCAGAAAGUCUGUAAUCAUUUUAAGGGUA", "self-cleavage": 1.45},
      {"variant": "GUUAACGGUCAUAGGCCAUGGAAACUAGGAGCACCAUUUCGCUGCCAGUGAAGAAAUGAACAAAGAAAAUCUGGGCCUGGCAGGCGUCAAAAGAAAUAGUCUUGCGCUCAACCAGGAAGUCUGUAAUCAUUUUAAGGGUA", "self-cleavage": 0.04},
      {"variant": "GUUAACGGUCAUAGGCCAUGGAAACUAGGAGCACCAUUUCGCUGCCAGUGAAGAAAUGAACAAAGAAAAUCUGGGCCAGGCCGGCAUCAGAAGAAAUGGUCUUGCGCGCAACCAGAAAGUCUGUAAUCAUUUUAAGGGUA", "self-cleavage": 0},
      {"variant": "GUUAACGGUCAUAGGCCAUGGAAACUAGGAGCACCAUUUCGCUGCCAGUGAAGAAAUGAACAAAGAAAAUCUGGGCCAGGCGGGCAUCGAAAGAAAUAGUCUUGCGCUCGACCAGAAAGUCAGUAAUCAUUUUAAGGGUA", "self-cleavage": 0.06},
      {"variant": "GUUAACGGUCAUAGGCCAUGGAAACUAGGAGCACCAUUUCGCUGCCAGUGAAGAAAUGAACAAAGAAAAUCUGGGCCAGGCGGGCAUCAGAAGAAAUAGUCUUGCGCUCAACCAGAAAGUCAGUAAUCAUUUUAAGGGUA", "self-cleavage": 0.67},
      {"variant": "GUUAACGGUCAUAGGCCAUGGAAACUAGGAGCACCAUUUCGCUGCCAGUGAAGAAAUGAACAAAGAAAAUCUGGGCCAGGCCGGCGUCAAAAGAAAUAGUCUCGCGCUCAACAAGAAGGUCUGUAAUCAUUUUAAGGGUA", "self-cleavage": 0.01},
      {"variant": "GUUAACGGUCAUAGGCCAUGGAAACUAGGAGCACCAUUUCGCUGCCAGUGAAGAAAUGAACAAAGAAAAUCUGGGCCAGGCGGGCAUCUAAAGAAAUAGUCUUGCGCUCAACCAGAAAGACUGUAAUCAUUUUAAGGGUA", "self-cleavage": 0.19},
      {"variant": "GUUAACGGUCAUAGGCCAUGGAAACUAGGAGCACCAUUUCGCUGCCAGUGAAGAAAUGAACAAAGAAAAUCUGGGCCUGGCAGGCAUCAAAAGAGAUAGUCUUGCGCUCAACCAGAAAGUCAGUAAUCAUUUUAAGGGUA", "self-cleavage": 0.33},
      {"variant": "GUUAACGGUCAUAGGCCAUGGAAACUAGGAGCACCAUUUCGCUGCCAGUGAAGAAAUGAACAAAGAAAAUCUGGGCCAGGCGGGCAUCAAAGGAGAUAGUCUUGCGCUCAACCAGAAAGUCAGUAAUCAUCUUAAGGGUA", "self-cleavage": 0.57},
      {"variant": "GUUAACGGUCAUAGGCCAUGGAAACUAGGAGCACCAUUUCGCUGCCAGUGAAGAAAUGAACAAAGAAAAUCUGGGCCUGGCAGGCACCUAAAGAAAUAGUCUUGCGCUCAACCAGAAAGCCUGUAAUCAUUUUAAGGGUA", "self-cleavage": 0.09},
      {"variant": "GUUAACGGUCAUAGGCCAUGGAAACUAGGAGCACCAUUUCGCUGCCAGUGAAGAAAUGAACAAAGAAAAUCUGGGCCUGGCAGGCAUCAAGAGAAAUAGUCUCGCGCUCAACCAGAAAGUCUGUAAUCAUUUUAAGGGUA", "self-cleavage": 0.02},
      {"variant": "GUUAACGGUCAUAGGCCAUGGAAACUAGGAGCACCAUUUCGCUGCCAGUGAAGAAAUGAACAAAGAAAAUCUGGGCCGGGCAGGCAUCAAAAGAAAUAGUCUUGCGCUCAACCAGAAAGUCAGUAAUCAUCUUAAGGGUA", "self-cleavage": 0.24},
      {"variant": "GUUAACGGUCAUAGGCCAUGGAAACUAGGAGCACCAUUUCGCUGCCAGUGAAGAAAUGAACAAAGAAAAUCUGGGCCUGGCUGGCUUCAAAAGAAAUAGUCUUGCGCUCAACCAGAAAGUCUGUAAUCAUUUUAAGGGUA", "self-cleavage": 0.15},
      {"variant": "GUUAACGGUCAUAGGCCAUGGAAACUAGGAGCACCAUUUCGCUGCCAGUGAAGAAAUGAACAAAGAAAAUCUGGGCCAAGCAGGCAUCAAAAGAAAUAGUCUUGCGCUCGACCAGAAUGUCUGUAAUCAUUUUAAGGGUA", "self-cleavage": 0},
      {"variant": "GUUAACGGUCAUAGGCCAUGGAAACUAGGAGCACCAUUUCGCUGCCAGUGAAGAAAUGAACAAAGAAAAUCUGGGCCAGGCCGGCACCAAAAGAAAUAGUCUUGCGCUCAACCAGAAAGUCCGUAAUCAUUUUAAGGGUA", "self-cleavage": 0.12},
      {"variant": "GUUAACGGUCAUAGGCCAUGGAAACUAGGAGCACCAUUUCGCUGCCAGUGAAGAAAUGAACAAAGAAAAUCUGGGCCUGGCAGGCCUCAAAAGAAAUAGUCUUGCGCUCAUCCAGAAAGUCUGUAAUCAUUUUAAGGGUA", "self-cleavage": 0.01},
      {"variant": "GUUAACGGUCAUAGGCCAUGGAAACUAGGAGCACCAUUUCGCUGCCAGUGAAGAAAUGAACAAAGAAAAUCUGGGCCAAGCAGGCAACAAAAGAAAUAGUCUUGCGCUCAACCAGAGAGUCUGUAAUCAUUUUAAGGGUA", "self-cleavage": 0.11},
      {"variant": "GUUAACGGUCAUAGGCCAUGGAAACUAGGAGCACCAUUUCGCUGCCAGUGAAGAAAUGAACAAAGAAAAUCUGGGCCUGGCAGGCUUCAAAAGAAAUAGUCUUGCGCUCGACCAGAAAGUCUGUAAUCAUUUUAAGGGUA", "self-cleavage": 0.18},
      {"variant": "GUUAACGGUCAUAGGCCAUGGAAACUAGGAGCACCAUUUCGCUGCCAGUGAAGAAAUGAACAAAGAAAAUCUGGGCCAGGUAGGCAGCAAAAGAAAUAGUCUUGCGCUCAACCAGAGAGUCUGUAAUCAUUUUAAGGGUA", "self-cleavage": 0.09},
      {"variant": "GUUAACGGUCAUAGGCCAUGGAAACUAGGAGCACCAUUUCGCUGCCAGUGAAGAAAUGAACAAAGAAAAUCUGGGCCUGGCAGGCAUCAAAAGGAAUAGUCUUGCGCCCAGCCAGAAGGUCUGUAAUCAUUUUAAGGGUA", "self-cleavage": 0.01},
      {"variant": "GUUAACGGUCAUAGGCCAUGGAAACUAGGAGCACCAUUUCGCUGCCAGUGAAGAAAUGAACAAAGAAAAUCUGGGCCACGCAGGCGUCAAAAGAAAUAGUCUCGCGCUCAACCAGAAAGUCUGUAAUCAUUUUAAGGGUA", "self-cleavage": 0.03},
      {"variant": "GUUAACGGUCAUAGGCCAUGGAAACUAGGAGCACCAUUUCGCUGCCAGUGAAGAAAUGAACAAAGAAAAUCUGGGCCUGGCAGGCAACAAAAGAAAUAGUCUUGCGCUCAACCAGAAAGUCUGUAAUCGUUUUAAGGGUA", "self-cleavage": 0.35}
    ]}
  ]
}
